# In the supplement of paper PMC8728848:
# Some of the results follow.
# B1: PFL (Pseudomonas fluorescens) (protein)
# chain: MSKYAVANQWGGSSAPWHPGGTWVLGARDNQNVVAIEIKSGDGGKSFTGTMTYAGEGPIGFKAQRTGQNQYNVENQWGGNDAPWHPGGKWVIGGRDNQNVIALSVTSSDGGKNLSGTNTYANEGPIGFRGQIE
# What was measured:
# Test in all cases: glycan array binding signal (z-score within array); higher = stronger binding
# Conditions in all cases: glycan notation: IUPAC condensed, linker removed
# [1] = target: GlcNAc(a1-6)Gal(b1-4)GlcNAc
# How it was run: (§1)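 Arrays were curated from the Consortium for Functional Glycomics database, 3228 in total, and kept only where the protein sequence was available. Binding is expressed as a within-array Z-score. This score was averaged across arrays of the same protein sequence at different concentrations or buffers and across linkers, and negative values can be read as non-binding.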
# [2] = target: GlcNAc(b1-2)Gal(b1-3)GalNAc
# How it was run: as §1
# [3] = target: GlcNAc(b1-2)Man(a1-3)[GlcNAc(b1-2)Man(a1-6)]Man(b1-4)GlcNAc(b1-4)GlcNAc
# How it was run: as §1
# [4] = target: GlcNAc(b1-2)Man(a1-3)[GlcNAc(b1-2)Man(a1-6)]Man(b1-4)GlcNAc(b1-4)[Fuc(a1-6)]GlcNAc
# How it was run: as §1
# [5] = target: GlcNAc(b1-2)Man(a1-3)[GlcNAc(b1-4)][GlcNAc(b1-2)Man(a1-6)]Man(b1-4)GlcNAc(b1-4)GlcNAc
# How it was run: as §1
# [6] = target: GlcNAc(b1-2)Man(a1-3)[GlcNAc(b1-4)][GlcNAc(b1-2)Man(a1-6)]Man(b1-4)GlcNAc(b1-4)[Fuc(a1-6)]GlcNAc
# How it was run: as §1
# [7] = target: GlcNAc(b1-2)[GlcNAc(b1-4)]Man(a1-3)[GlcNAc(b1-2)Man(a1-6)]Man(b1-4)GlcNAc(b1-4)GlcNAc
# How it was run: as §1
# [8] = target: GlcNAc(b1-2)[GlcNAc(b1-4)]Man(a1-3)[GlcNAc(b1-4)][GlcNAc(b1-2)Man(a1-6)]Man(b1-4)GlcNAc(b1-4)GlcNAc
# How it was run: as §1
# [9] = target: GlcNAc(b1-2)[GlcNAc(b1-4)]Man(a1-3)[GlcNAc(b1-4)][GlcNAc(b1-2)[GlcNAc(b1-6)]Man(a1-6)]Man(b1-4)GlcNAc(b1-4)GlcNAc
# How it was run: as §1
# [10] = target: GlcNAc(b1-2)[GlcNAc(b1-4)]Man(a1-3)[GlcNAc(b1-4)][GlcNAc(b1-2)[GlcNAc(b1-6)]Man(a1-6)]Man(b1-4)GlcNAc(b1-4)[Fuc(a1-6)]GlcNAc
# How it was run: as §1
# [11] = target: GlcNAc(b1-2)[GlcNAc(b1-6)]Man(a1-6)[GlcNAc(b1-2)Man(a1-3)]Man(b1-4)GlcNAc(b1-4)GlcNAc
# How it was run: as §1
# [12] = target: GlcNAc(b1-2)[GlcNAc(b1-6)]Man(a1-6)[GlcNAc(b1-2)Man(a1-3)]Man(b1-4)GlcNAc(b1-4)[Fuc(a1-6)]GlcNAc
# How it was run: as §1
# [13] = target: GlcNAc(b1-2)[GlcNAc(b1-6)]Man(a1-6)[GlcNAc(b1-4)][GlcNAc(b1-2)Man(a1-3)]Man(b1-4)GlcNAc(b1-4)GlcNAc
# How it was run: as §1
# GlcNAc(b1-3)Fuc = target: GlcNAc(b1-3)Fuc
# How it was run: as §1
# GlcNAc(b1-3)Gal = target: GlcNAc(b1-3)Gal
# How it was run: as §1
# [14] = target: GlcNAc(b1-3)Gal(b1-3)GalNAc
# How it was run: as §1
# GlcNAc(b1-3)Gal(b1-4)Glc = target: GlcNAc(b1-3)Gal(b1-4)Glc
# How it was run: as §1
# [15] = target: GlcNAc(b1-3)Gal(b1-4)GlcNAc
# How it was run: as §1
# [16] = target: GlcNAc(b1-3)Gal(b1-4)GlcNAc(b1-2)Man(a1-3)[GlcNAc(b1-3)Gal(b1-4)GlcNAc(b1-2)Man(a1-6)]Man(b1-4)GlcNAc(b1-4)GlcNAc
# How it was run: as §1
# [17] = target: GlcNAc(b1-3)Gal(b1-4)GlcNAc(b1-2)Man(a1-3)[GlcNAc(b1-3)Gal(b1-4)GlcNAc(b1-2)Man(a1-6)]Man(b1-4)GlcNAc(b1-4)[Fuc(a1-6)]GlcNAc
# How it was run: as §1
# [18] = target: GlcNAc(b1-3)Gal(b1-4)GlcNAc(b1-2)[GlcNAc(b1-3)Gal(b1-4)GlcNAc(b1-6)]Man(a1-6)[GlcNAc(b1-3)Gal(b1-4)GlcNAc(b1-2)Man(a1-3)]Man(b1-4)GlcNAc(b1-4)GlcNAc
# How it was run: as §1
# [19] = target: GlcNAc(b1-3)Gal(b1-4)GlcNAc(b1-3)Gal(b1-4)GlcNAc
# How it was run: as §1
# [20] = target: GlcNAc(b1-3)Gal(b1-4)GlcNAc(b1-3)Gal(b1-4)GlcNAc(b1-2)Man(a1-3)[GlcNAc(b1-3)Gal(b1-4)GlcNAc(b1-3)Gal(b1-4)GlcNAc(b1-2)Man(a1-6)]Man(b1-4)GlcNAc(b1-4)GlcNAc
# How it was run: as §1
# [21] = target: GlcNAc(b1-3)Gal(b1-4)GlcNAc(b1-3)Gal(b1-4)GlcNAc(b1-2)Man(a1-3)[GlcNAc(b1-3)Gal(b1-4)GlcNAc(b1-3)Gal(b1-4)GlcNAc(b1-2)Man(a1-6)]Man(b1-4)GlcNAc(b1-4)[Fuc(a1-6)]GlcNAc
# How it was run: as §1
# [22] = target: GlcNAc(b1-3)Gal(b1-4)GlcNAc(b1-3)Gal(b1-4)GlcNAc(b1-2)[GlcNAc(b1-3)Gal(b1-4)GlcNAc(b1-3)Gal(b1-4)GlcNAc(b1-6)]Man(a1-6)[GlcNAc(b1-3)Gal(b1-4)GlcNAc(b1-3)Gal(b1-4)GlcNAc(b1-2)Man(a1-3)]Man(b1-4)GlcNAc(b1-4)[Fuc(a1-6)]GlcNAc
# How it was run: as §1
# [23] = target: GlcNAc(b1-3)Gal(b1-4)GlcNAc(b1-3)Gal(b1-4)GlcNAc(b1-3)Gal(b1-4)GlcNAc(b1-2)Man(a1-3)[GlcNAc(b1-3)Gal(b1-4)GlcNAc(b1-3)Gal(b1-4)GlcNAc(b1-3)Gal(b1-4)GlcNAc(b1-2)Man(a1-6)]Man(b1-4)GlcNAc(b1-4)GlcNAc
# How it was run: as §1
# [24] = target: GlcNAc(b1-3)Gal(b1-4)GlcNAc(b1-3)Gal(b1-4)GlcNAc(b1-3)Gal(b1-4)GlcNAc(b1-2)Man(a1-3)[GlcNAc(b1-3)Gal(b1-4)GlcNAc(b1-3)Gal(b1-4)GlcNAc(b1-3)Gal(b1-4)GlcNAc(b1-2)Man(a1-6)]Man(b1-4)GlcNAc(b1-4)[Fuc(a1-6)]GlcNAc
# How it was run: as §1
# [25] = target: GlcNAc(b1-3)Gal(b1-4)GlcNAc(b1-3)Gal(b1-4)GlcNAc(b1-3)Gal(b1-4)GlcNAc(b1-2)[GlcNAc(b1-3)Gal(b1-4)GlcNAc(b1-3)Gal(b1-4)GlcNAc(b1-3)Gal(b1-4)GlcNAc(b1-6)]Man(a1-6)[GlcNAc(b1-3)Gal(b1-4)GlcNAc(b1-3)Gal(b1-4)GlcNAc(b1-3)Gal(b1-4)GlcNAc(b1-2)Man(a1-3)]Man(b1-4)GlcNAc(b1-4)[Fuc(a1-6)]GlcNAc
# How it was run: as §1
# [26] = target: GlcNAc(b1-3)Gal(b1-4)GlcNAc(b1-3)Gal(b1-4)GlcNAc(b1-3)Gal(b1-4)GlcNAc(b1-3)Gal(b1-4)GlcNAc(b1-2)Man(a1-3)[GlcNAc(b1-3)Gal(b1-4)GlcNAc(b1-3)Gal(b1-4)GlcNAc(b1-3)Gal(b1-4)GlcNAc(b1-3)Gal(b1-4)GlcNAc(b1-2)Man(a1-6)]Man(b1-4)GlcNAc(b1-4)GlcNAc
# How it was run: as §1
# [27] = target: GlcNAc(b1-3)Gal(b1-4)GlcNAc(b1-3)Gal(b1-4)GlcNAc(b1-3)Gal(b1-4)GlcNAc(b1-3)Gal(b1-4)GlcNAc(b1-2)Man(a1-3)[GlcNAc(b1-3)Gal(b1-4)GlcNAc(b1-3)Gal(b1-4)GlcNAc(b1-3)Gal(b1-4)GlcNAc(b1-3)Gal(b1-4)GlcNAc(b1-2)Man(a1-6)]Man(b1-4)GlcNAc(b1-4)[Fuc(a1-6)]GlcNAc
# How it was run: as §1
# [28] = target: GlcNAc(b1-3)Gal(b1-4)GlcNAc(b1-3)Gal(b1-4)GlcNAc(b1-3)Gal(b1-4)GlcNAc(b1-3)Gal(b1-4)GlcNAc(b1-2)[GlcNAc(b1-3)Gal(b1-4)GlcNAc(b1-3)Gal(b1-4)GlcNAc(b1-3)Gal(b1-4)GlcNAc(b1-3)Gal(b1-4)GlcNAc(b1-6)]Man(a1-6)[GlcNAc(b1-3)Gal(b1-4)GlcNAc(b1-3)Gal(b1-4)GlcNAc(b1-3)Gal(b1-4)GlcNAc(b1-3)Gal(b1-4)GlcNAc(b1-2)Man(a1-3)]Man(b1-4)GlcNAc(b1-4)[Fuc(a1-6)]GlcNAc
# How it was run: as §1
# [29] = target: GlcNAc(b1-3)Gal(b1-4)GlcNAc(b1-3)Gal(b1-4)GlcNAc(b1-3)GalNAc
# How it was run: as §1
# [30] = target: GlcNAc(b1-3)Gal(b1-4)GlcNAc(b1-3)GalNAc
# How it was run: as §1
# [31] = target: GlcNAc(b1-3)Gal(b1-4)GlcNAc(b1-3)[GlcNAc(b1-3)Gal(b1-4)GlcNAc(b1-3)]GalNAc
# How it was run: as §1
# [32] = target: GlcNAc(b1-3)Gal(b1-4)GlcNAc(b1-6)[Gal(b1-3)]GalNAc
# How it was run: as §1
# [33] = target: GlcNAc(b1-3)Gal(b1-4)GlcNAc(b1-6)[GlcNAc(b1-3)Gal(b1-3)]GalNAc
# How it was run: as §1
# [34] = target: GlcNAc(b1-3)Gal(b1-4)GlcNAc(b1-6)[GlcNAc(b1-3)]Gal(b1-4)GlcNAc
# How it was run: as §1
# GlcNAc(b1-3)GalNAc = target: GlcNAc(b1-3)GalNAc
# How it was run: as §1
# GlcNAc(b1-3)Man = target: GlcNAc(b1-3)Man
# How it was run: as §1
# [35] = target: GlcNAc(b1-3)[GlcNAc(b1-4)][GlcNAc(b1-6)]GlcNAc
# How it was run: as §1
# [36] = target: GlcNAc(b1-3)[GlcNAc(b1-6)]Gal(b1-4)GlcNAc
# How it was run: as §1
# [37] = target: GlcNAc(b1-3)[GlcNAc(b1-6)]GalNAc
# How it was run: as §1
# [38] = target: GlcNAc(b1-4)Gal(b1-4)GlcNAc
# How it was run: as §1
# GlcNAc(b1-4)GlcNAc = target: GlcNAc(b1-4)GlcNAc
# How it was run: as §1
# [39] = target: GlcNAc(b1-4)GlcNAc(b1-4)GlcNAc
# How it was run: as §1
binder,measurement,setting,value
B1,glycan array binding signal (z-score),[1],-0.117
same,glycan array binding signal (z-score),[2],-0.113
same,glycan array binding signal (z-score),[3],-0.116
same,glycan array binding signal (z-score),[4],0.012
same,glycan array binding signal (z-score),[5],-0.114
same,glycan array binding signal (z-score),[6],-0.113
same,glycan array binding signal (z-score),[7],-0.069
same,glycan array binding signal (z-score),[8],-0.11
same,glycan array binding signal (z-score),[9],-0.117
same,glycan array binding signal (z-score),[10],-0.119
same,glycan array binding signal (z-score),[11],-0.114
same,glycan array binding signal (z-score),[12],-0.102
same,glycan array binding signal (z-score),[13],-0.113
same,glycan array binding signal (z-score),GlcNAc(b1-3)Fuc,-0.109
same,glycan array binding signal (z-score),GlcNAc(b1-3)Gal,-0.116
same,glycan array binding signal (z-score),[14],-0.113
same,glycan array binding signal (z-score),GlcNAc(b1-3)Gal(b1-4)Glc,-0.117
same,glycan array binding signal (z-score),[15],-0.116
same,glycan array binding signal (z-score),[16],-0.111
same,glycan array binding signal (z-score),[17],-0.025
same,glycan array binding signal (z-score),[18],-0.08
same,glycan array binding signal (z-score),[19],-0.114
same,glycan array binding signal (z-score),[20],-0.108
same,glycan array binding signal (z-score),[21],-0.096
same,glycan array binding signal (z-score),[22],-0.11
same,glycan array binding signal (z-score),[23],-0.114
same,glycan array binding signal (z-score),[24],-0.096
same,glycan array binding signal (z-score),[25],-0.109
same,glycan array binding signal (z-score),[26],-0.109
same,glycan array binding signal (z-score),[27],0.02
same,glycan array binding signal (z-score),[28],-0.106
same,glycan array binding signal (z-score),[29],-0.11
same,glycan array binding signal (z-score),[30],-0.112
same,glycan array binding signal (z-score),[31],-0.11
same,glycan array binding signal (z-score),[32],-0.115
same,glycan array binding signal (z-score),[33],-0.112
same,glycan array binding signal (z-score),[34],-0.118
same,glycan array binding signal (z-score),GlcNAc(b1-3)GalNAc,-0.114
same,glycan array binding signal (z-score),GlcNAc(b1-3)Man,-0.116
same,glycan array binding signal (z-score),[35],-0.116
same,glycan array binding signal (z-score),[36],-0.112
same,glycan array binding signal (z-score),[37],-0.116
same,glycan array binding signal (z-score),[38],-0.118
same,glycan array binding signal (z-score),GlcNAc(b1-4)GlcNAc,-0.11
same,glycan array binding signal (z-score),[39],-0.117
